According to PubChem BioAssay AID1454 (National Center for Advancing Translational Sciences (NCATS), 2008):
In all, about 130,000 compounds went through this assay and about 550 (0.42%) were called active. The shares of active, inactive and inconclusive entries below differ from those in the screen. Calls follow the shape of the dose curve; as a rule, active = well fitted inhibition curve with a large enough effect; inconclusive = small, poorly fitted or top-dose-only effect, or effect the other way; inactive = flat fitted curve, though single readings scatter. Potencies of inconclusive entries are left out as doubtful fits.

Assay: qHTS Assay for Inhibitors of the ERK Signaling Pathway using a Homogeneous Screening Assay; Stimulation with EGF; also: nearly all actives have a fitted effect of over 55% in size;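 as to activity change, negative = inhibition: plate controls were stimulated vehicle wells for no effect and unstimulated vehicle basal for full effect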
Settings: HEK293-V1b, EGF-stimulated phospho-ERK AlphaScreen; activity change, negative = inhibition: at the top concentration
In short: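 Readout: AlphaScreen signal for phosphorylated ERK in lysed HEK293 cells stably expressing V1b. Stimulus 25 nM EGF, 5 min, following 30 min compound exposure. Data scaled to DMSO basal and full EGF activation.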
Potency is read from the fitted curve at half-maximal effect; tags tell the direction and shape of the fitted curve.

**Q.** Which “activity change, negative = inhibition” value does the source give for `CC(C)(C)C(=O)/C(=C\c1ccc([N+](=O)[O-])cc1)n1cncn1` here?
**A.** Its value is inactive: 5.86%.

**Q.** With `CC(C)(C)c1cc(C(=O)Nc2ccc(F)cc2)n(Cc2ccc(F)cc2)n1` as the compound, how does the Potency read?
**A.** The Potency was inconclusive [inhibitor, partial curve, poor fit].

**Q.** For `CC(Nc1ccc(Cl)cc1)c1cc(Cl)ccc1O` (stereo unspecified), which Potency is on record?
**A.** The Potency was inconclusive [inhibitor, single point].

**Q.** For `CCOC(=O)C(Sc1nnc(-c2ccncc2)o1)C(C)=O` (stereo unspecified), which “activity change, negative = inhibition” value is on record?
**A.** The value was inactive: -3.48%.

**Q.** Which Potency does the source give for `O=[N+]([O-])c1cccc(N/N=C/c2cc([N+](=O)[O-])ccc2O)c1` here?
**A.** Its Potency is inconclusive [inhibitor, single point].

**Q.** For `O=C(Nc1cccnc1)c1ccc(-c2cc(Cl)ccc2Cl)o1`, which Potency is on record?
**A.** Its Potency is inconclusive [inhibitor, single point].

**Q.** Which “activity change, negative = inhibition” value does the source give for `Cc1cccc(-n2c(-c3ccncc3)n[nH]c2=S)c1` here?
**A.** Its value is inactive: 4.1%.

**Q.** For `Clc1ccc(-c2csc(N/N=C/c3ccco3)n2)cc1`, which Potency is on record?
**A.** Its Potency is inconclusive [inhibitor, single point].

**Q.** For `CC1CCN(C(=S)c2ccc(-c3ccc(Cl)cc3Cl)o2)CC1`, which Potency is on record?
**A.** The Potency was inconclusive [inhibitor, single point].

**Q.** With `Cn1cccc1C(=O)N1CCC2(CC1)CCN(c1cccc(-c3ccccc3)c1)CC2` as the compound, how does the Potency read?
**A.** The Potency was inconclusive [inhibitor, single point].

**Q.** With `O=[N+]([O-])c1ccccc1/C=C\C=N\N1CCN(c2ccccc2)CC1` as the compound, how does the Potency read?
**A.** The Potency was inconclusive [inhibitor, partial curve, poor fit].

**Q.** For `Clc1ccc(-c2nc(N3CCCCC3)nc3ccccc23)cc1`, which Potency is on record?
**A.** Its Potency is inconclusive [activator, partial curve].

**Q.** For `Cc1ccccc1N=C/C=C1/C=C(c2ccccc2)OC(C)(C)O1`, which “activity change, negative = inhibition” value is on record?
**A.** The value was inactive: 1.01%.

**Q.** For `O=C(O)c1ccc(/C=N/N2CCN(Cc3ccc(Cl)cc3)CC2)cc1`, which “activity change, negative = inhibition” value is on record?
**A.** The value was inactive: -0.916%.

**Q.** For `CC(C)Cn1c(N)c(C(=O)COC(=O)CCc2nc3ccccc3s2)c(=O)n(C)c1=O`, which Potency is on record?
**A.** The Potency was inconclusive [inhibitor, single point].

**Q.** Which Potency does the source give for `Cc1cn(Cc2ccccc2Cn2cc(C)c(=O)[nH]c2=O)c(=O)[nH]c1=O` here?
**A.** Its Potency is inconclusive [inhibitor, single point].

**Q.** Which Potency does the source give for `C=CCN=c1scc(-c2ccc3c(c2)NC(=O)CO3)n1/N=C(\C)c1ccccn1` here?
**A.** Its Potency is inconclusive [inhibitor, single point].

**Q.** For `CC(C)c1ccc(Nc2c([N+](=O)[O-])c(=O)n(C)c3ccccc23)cc1`, which Potency is on record?
**A.** Its Potency is inconclusive [inhibitor, partial curve, poor fit].

**Q.** With `CNc1cnn(-c2ccc(C)cc2)c(=O)c1Sc1ccc(C)cc1` as the compound, how does the Potency read?
**A.** Its Potency is inconclusive [inhibitor, single point].

**Q.** For `N/C(=N\OC(=O)Cc1ccccc1)c1ccc(Br)cc1`, which Potency is on record?
**A.** Its Potency is inconclusive [activator, single point].

**Q.** For `Cc1cc(N/N=C/c2ccc3c(c2)OCO3)nc2ccccc12`, which Potency is on record?
**A.** The Potency was inconclusive [inhibitor, single point].

**Q.** With `COc1ccc2c(c1)oc(=O)c1cc(OC)ccc12` as the compound, how does the “activity change, negative = inhibition” value read?
**A.** The value was inactive: -4.52% [at 57.5 µM].

**Q.** Which Potency does the source give for `CC(=O)N1/C(=C/c2ccc(N(C)C)cc2)C(=O)c2ccccc21` here?
**A.** Its Potency is active: 25.1 µM.

**Q.** Which Potency does the source give for `Cc1ccc(Sc2ccc(/C=C3/C(=O)NN(c4ccccc4)C3=O)o2)cc1` here?
**A.** Its Potency is inconclusive [inhibitor, partial curve].

**Q.** For `CCNS(=O)(=O)c1ccc(-c2ccc(-n3cnnn3)cc2)cc1`, which Potency is on record?
**A.** Its Potency is inconclusive [inhibitor, partial curve].

**Q.** Which Potency does the source give for `Fc1cccc(-c2cc3nc(-c4ccccc4)cc(N4CCC5(CC4)OCCO5)n3n2)c1` here?
**A.** Its Potency is inconclusive [activator, partial curve].

**Q.** With `CCCc1c(-c2ccc(O)cc2)nn(-c2ccc(O)cc2)c1-c1ccc(O)cc1` as the compound, how does the Potency read?
**A.** The Potency was inconclusive [inhibitor, single point].

**Q.** With `O=C(Nc1ccc(Nc2ccccc2)cc1)Nc1ccccc1Cl` as the compound, how does the Potency read?
**A.** The Potency was active: 28.2 µM.

**Q.** With `CC(Oc1cccc(NC(=O)c2cccs2)c1)C(=O)c1ccccc1` (stereo unspecified) as the compound, how does the Potency read?
**A.** Its Potency is inconclusive [inhibitor, partial curve, poor fit].

**Q.** Which Potency does the source give for `O=[N+]([O-])c1ccc(N2CCN(C(=S)Nc3cccc(F)c3)CC2)cc1` here?
**A.** Its Potency is inconclusive [inhibitor, partial curve].

**Q.** Which Potency does the source give for `COc1ccc(C2=NN(CN3C(=O)C(=O)c4ccccc43)C(c3cccc([N+](=O)[O-])c3)C2)cc1` (stereo unspecified) here?
**A.** The Potency was inconclusive [inhibitor, partial curve].

**Q.** Which “activity change, negative = inhibition” value does the source give for `C=C(C)C(=O)/C=C/CCC/C=C/C(=O)OCC` here?
**A.** Its value is inactive: 2.27%.

**Q.** Which “activity change, negative = inhibition” value does the source give for `NNC(=O)c1ccc(CSc2cccc3cccnc23)cc1` here?
**A.** The value was inactive: -11.5%.

**Q.** Which Potency does the source give for `c1ccc(-c2cccc(N3CC[C@@]4(CCCNC4)C3)c2)cc1` here?
**A.** Its Potency is inconclusive [inhibitor, single point].

**Q.** With `O=[N+]([O-])c1ccc(/C=C/c2ccc3ccccc3n2)cc1` as the compound, how does the Potency read?
**A.** Its Potency is inconclusive [inhibitor, partial curve, poor fit].

**Q.** Which Potency does the source give for `COc1ccc(N2CCN(c3oc(COc4ccccc4)nc3C#N)CC2)cc1` here?
**A.** The Potency was inconclusive [inhibitor, single point].

**Q.** Which Potency does the source give for `Cc1cc(C)c(O)c(-c2cc(C(=O)Nc3cccnc3)[nH]n2)c1` here?
**A.** The Potency was inconclusive [inhibitor, partial curve].

**Q.** With `O=C(COC(=O)c1cccc(Cl)c1)Nc1cc(Cl)ccc1Oc1ccccc1` as the compound, how does the Potency read?
**A.** Its Potency is inconclusive [activator, single point].

**Q.** Which Potency does the source give for `CCc1ccc(C(=O)Nc2ccc(OC)c(S(=O)(=O)N3CCOCC3)c2)cc1` here?
**A.** The Potency was inconclusive [inhibitor, single point].

**Q.** Which Potency does the source give for `O=C(COC(=O)C1CC(=O)N(Cc2ccco2)C1)c1ccc(OC(=O)c2ccco2)cc1` (stereo unspecified) here?
**A.** The Potency was inconclusive [activator, single point].

**Q.** With `Cc1ccc(C)c(C(=O)COC(=O)c2cccc(N3C(=O)c4c(C)nc5ccccc5c4C3=O)c2)c1` as the compound, how does the Potency read?
**A.** The Potency was inconclusive [inhibitor, partial curve].

**Q.** With `COC(=O)[C@@]1(Cc2ccccc2)[C@H]2c3cc(C(=O)N(C)C)n(CCO)c3C[C@H]2CN1C(=O)c1ccccc1` as the compound, how does the “activity change, negative = inhibition” value read?
**A.** Its value is inactive: 7.94%.

**Q.** Which Potency does the source give for `Cn1c2ccccc2c(=O)c2c(=O)n(C3CCCCCC3)c(C3CCCCC3)nc21` here?
**A.** The Potency was inconclusive [inhibitor, single point].

**Q.** For `COc1ccccc1-c1c(C)nn2c(N3CCCCCC3)cc(C)nc12`, which “activity change, negative = inhibition” value is on record?
**A.** Its value is inactive: -2.57%.

**Q.** Which Potency does the source give for `COC(=O)CCCC1=CC2=C(c3ccccc3)C(=O)C(C)(OC(=O)C3CCCC3)C(=O)C2=CN1Cc1ccc(OC)cc1` (stereo unspecified) here?
**A.** The Potency was inconclusive [inhibitor, partial curve].

**Q.** With `OCC(O)/C=N/Nc1nc(N2CCCCC2)nc(N2CCCCC2)n1` (stereo unspecified) as the compound, how does the “activity change, negative = inhibition” value read?
**A.** Its value is inactive: 2.69%.

**Q.** With `CC(=O)c1c(C)[nH]c(C(=O)OCC(=O)Nc2sc3c(c2C#N)CCCC3)c1C` as the compound, how does the Potency read?
**A.** Its Potency is inconclusive [inhibitor, partial curve].

**Q.** Which Potency does the source give for `O=C(Nc1cccc(-c2nnc(-c3ccccc3)o2)c1)C1CC1` here?
**A.** The Potency was inconclusive [activator, partial curve, poor fit].

**Q.** Which Potency does the source give for `O=C(O)c1cccc(N2C(=O)/C(=C/c3ccc(SCc4ccc(Cl)cc4)o3)SC2=S)c1` here?
**A.** The Potency was inconclusive [inhibitor, single point].

**Q.** For `Cc1ccc(Cl)cc1NC(=O)C1CC(=O)Nc2ncnn21` (stereo unspecified), which Potency is on record?
**A.** The Potency was inconclusive [inhibitor, partial curve].

**Q.** With `Cn1cc(/C=C/C(=O)N2CCCC(C(=O)c3cccc(C(F)(F)F)c3)C2)cn1` (stereo unspecified) as the compound, how does the Potency read?
**A.** The Potency was inconclusive [inhibitor, partial curve, poor fit].

**Q.** With `O=C1NC(=Nc2ccccc2)SC1Cc1cccc(Cl)c1Cl` (stereo unspecified) as the compound, how does the Potency read?
**A.** The Potency was inconclusive [inhibitor, partial curve].

**Q.** Which Potency does the source give for `CN(C)Cc1c(O)ccc2c1O/C(=C\C=C\c1ccccc1)C2=O` here?
**A.** Its Potency is inconclusive [inhibitor, full curve, poor fit].

**Q.** Which Potency does the source give for `CCCOC(=O)c1ccc(NC(=O)/C=C/c2cccs2)cc1` here?
**A.** Its Potency is inconclusive [inhibitor, single point].

**Q.** For `O=C(CCSc1ccccc1Cl)Nc1cccc([N+](=O)[O-])c1`, which Potency is on record?
**A.** The Potency was inconclusive [inhibitor, single point].

**Q.** Which Potency does the source give for `O=C(CSc1nc2ccccc2c(=O)n1-c1ccccc1)N1CCc2ccccc2C1` here?
**A.** The Potency was active: 28.2 µM.

**Q.** Which Potency does the source give for `COc1cc(OC)c2cc(C(=O)N/N=C/c3cccc(OC)c3O)[nH]c2c1` here?
**A.** The Potency was inconclusive [inhibitor, single point].

**Q.** With `O=c1cc(CSc2ccccc2)nc(-c2ccccc2)[nH]1` as the compound, how does the “activity change, negative = inhibition” value read?
**A.** Its value is inactive: -5.98%.

**Q.** For `Cc1cccc(N2CCN(C(=O)C3COc4ccccc4O3)CC2)c1C` (stereo unspecified), which Potency is on record?
**A.** The Potency was inconclusive [inhibitor, single point].

**Q.** With `Nc1nc(Nc2ccccc2)nc2c1ncn2[C@@H]1O[C@H](CO)[C@H](O)[C@H]1O` as the compound, how does the “activity change, negative = inhibition” value read?
**A.** Its value is inactive: 2.38%.

**Q.** Which Potency does the source give for `O=C(NC(=S)Nc1ccccc1N1CCOCC1)c1ccc(-c2ccccc2F)o1` here?
**A.** The Potency was inconclusive [inhibitor, partial curve, poor fit].

**Q.** With `O=C(Nc1nccs1)c1cnccn1` as the compound, how does the “activity change, negative = inhibition” value read?
**A.** Its value is inactive: 4.53%.

**Q.** With `CCc1nc2cc3sc(CC)nc3cc2s1` as the compound, how does the Potency read?
**A.** The Potency was inconclusive [inhibitor, single point].

**Q.** With `COc1ccc(CC(=O)NCc2n[nH]c(=S)n2-c2cccc(C)c2)cc1` as the compound, how does the Potency read?
**A.** The Potency was inconclusive [inhibitor, single point].

**Q.** With `FC(F)Oc1ccc(/C=N/c2c(-c3ccc(OC(F)F)cc3)nc3n2CCS3)cc1` as the compound, how does the Potency read?
**A.** The Potency was inconclusive [inhibitor, partial curve, poor fit].

**Q.** With `COc1ccccc1/C=N/Nc1cc(N(C)C)nc(N(C)C)n1` as the compound, how does the Potency read?
**A.** The Potency was inconclusive [inhibitor, single point].
